The source of these data is the supplement of paper PMC10037445.

Experiment [1] relates to RAW-Dual. The experiment is described as follows: IRF Lucia reporter activity, fold change vs agonist alone; cytotoxicity flag (confluency mask): not cytotoxic; higher = enhanced IRF activity. Summed up: (§1)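 RAW-Dual macrophages (50,000 cells/well in DMEM, 384-well plates) received 50 nL of library stock by pin tool, then a PRR agonist 1 h later, and were kept at 37 °C, 5% CO2. After 20 hours, supernatant was read for IRF by QuantiLuc luminescence and for NF-κB by QuantiBlue absorbance at 620 nm. Reporter activity is fold change over agonist-alone wells. Cytotoxic wells had IncuCyte confluency below 70% of agonist controls in both mask sets.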

The subject of experiment [2] is RAW-Dual. The experiment is described as follows: IRF Lucia reporter activity, fold change vs agonist alone; higher = enhanced IRF activity. The note with it: agonist: MPLA (TLR4) […]. Summed up: as §1
For experiment [3], the system named is RAW-Dual. The experiment is described as follows: IRF Lucia reporter activity, fold change vs agonist alone; cytotoxicity flag (confluency mask): cytotoxic (confluency <70% of control); higher = enhanced IRF activity. Summed up:
as §1

[4] abbreviates: agonist: 3'3'-cGAMP (STING) 10 ug/mL.
[5] abbreviates: library stock concentration (final ~1000-fold dilution): 10 mM, cytotoxicity flag (confluency mask): cytotoxic (confluency <70% of control).
The mark [6] stands for this setting: library stock concentration (final ~1000-fold dilution): 10 mM, cytotoxicity flag (confluency mask): not cytotoxic.

The full ranking holds about 2,900 compounds; the median of “IRF Lucia reporter activity, fold change vs agonist alone” is about 0.9, and the highest 2% start at about 2.8. Some of the results follow.

As to `CCCn1c(NC(=O)c2cccc(C(N)=O)c2)nc2ccccc21` (library stock concentration (final ~1000-fold dilution): 10 mM), the entries for the “IRF Lucia reporter activity” value in the experiment with RAW-Dual [1] (setting [4]) and with RAW-Dual [1] (agonist: LPS (TLR4) 0.1 ug/mL) were 0.617 and 0.289, respectively.
On to `Cc1cn(CCN2CCN(c3ccccc3-c3cc(C#N)cc(C(=O)NCCCN4CCCC4)c3)CC2)c2ccccc12`, for which the “IRF Lucia reporter activity” value in the experiment with RAW-Dual [2] (setting [5]) stood at 0.0268.
On to `Cc1cn(CCN2CCN(c3ccccc3-c3cc(C#N)cc(C(=O)NCCCN4CCCC4)c3)CC2)c2ccccc12` (library stock concentration (final ~1000-fold dilution): 10 mM), for which the “IRF Lucia reporter activity” value in the experiment on RAW-Dual [3] (setting [4]) turned out to be 0.403; with RAW-Dual [3] (agonist: LPS (TLR4) 0.1 ug/mL), 0.0293.
With `O=C(CCc1ccc(O)cc1)c1c(O)cc(O)cc1O`, the “IRF Lucia reporter activity” value in the experiment with RAW-Dual [2] (setting [6]) worked out at 0.853.
Consider `O=C(CCc1ccc(O)cc1)c1c(O)cc(O)cc1O` (library stock concentration (final ~1000-fold dilution): 10 mM), for which the results for the “IRF Lucia reporter activity” value in the experiment on RAW-Dual [1] (setting [4]) and in the experiment with RAW-Dual [1] (agonist: LPS (TLR4) 0.1 ug/mL) were 0.81 and 0.76, respectively.
As for `N#Cc1cccc(-c2c[nH]c3ncnc(N4CCOCC4)c23)c1` (library stock concentration (final ~1000-fold dilution): 10 mM), the “IRF Lucia reporter activity” value came out at 0.11 in the experiment on RAW-Dual [1] (setting [4]) and 0.291 in the experiment on RAW-Dual [1] (agonist: LPS (TLR4) 0.1 ug/mL).
Take `CN(CC(=O)N(Cc1ccc(C2CCCCC2)cc1)c1ccc(C(=O)O)cc1)S(=O)(=O)c1c(F)c(F)c(F)c(F)c1F`: the “IRF Lucia reporter activity” value in the experiment on RAW-Dual [2] (setting [5]) came out at 0.118.
Consider `CN(CC(=O)N(Cc1ccc(C2CCCCC2)cc1)c1ccc(C(=O)O)cc1)S(=O)(=O)c1c(F)c(F)c(F)c(F)c1F` (library stock concentration (final ~1000-fold dilution): 10 mM), for which the “IRF Lucia reporter activity” value in the experiment with RAW-Dual [3] (setting [4]) came to 0.0132; with RAW-Dual [3] (agonist: LPS (TLR4) 0.1 ug/mL), 0.366.
As for `OC(CNCC(O)C1CCc2cc(F)ccc2O1)C1CCc2cc(F)ccc2O1` (centres undefined) (library stock concentration (final ~1000-fold dilution): 10 mM), the “IRF Lucia reporter activity” value turned out to be 0.476 in the experiment with RAW-Dual [3] (setting [4]) and 0.897 in the experiment with RAW-Dual [3] (agonist: LPS (TLR4) 0.1 ug/mL).
As for `OC(CNCC(O)C1CCc2cc(F)ccc2O1)C1CCc2cc(F)ccc2O1` (centres undefined), in the experiment with RAW-Dual [2] (setting [5]), the “IRF Lucia reporter activity” value came to 1.36.
As to `C=CC(=O)Nc1cc2c(Nc3ccc(F)c(Cl)c3)ncnc2cc1OCCCN1CCOCC1`, the “IRF Lucia reporter activity” value with RAW-Dual [2] (library stock concentration (final ~1000-fold dilution): 2 mM, cytotoxicity flag (confluency mask): not cytotoxic) is 0.819.
For the molecule `C=CC(=O)Nc1cc2c(Nc3ccc(F)c(Cl)c3)ncnc2cc1OCCCN1CCOCC1` (library stock concentration (final ~1000-fold dilution): 2 mM), the “IRF Lucia reporter activity” value in the experiment on RAW-Dual [1] (setting [4]) is 0.153; in the experiment with RAW-Dual [1] (agonist: LPS (TLR4) 0.1 ug/mL) it was 0.287.
As for `O=C(NCc1ccccc1)c1csc(Nc2ccncn2)n1` (library stock concentration (final ~1000-fold dilution): 10 mM), the results for the “IRF Lucia reporter activity” value with RAW-Dual [1] (setting [4]) and in the experiment with RAW-Dual [1] (agonist: LPS (TLR4) 0.1 ug/mL) were 0.653 and 0.508, respectively.
As to `O=C(NCc1ccccc1)c1csc(Nc2ccncn2)n1`, the “IRF Lucia reporter activity” value with RAW-Dual [2] (setting [6]) came to 0.401.
Turning to `CNCc1ccc(-c2cc(-c3nc(-c4ccc(S(=O)(=O)C(C)C)cc4)cnc3N)on2)cc1` (library stock concentration (final ~1000-fold dilution): 10 mM), the “IRF Lucia reporter activity” value in the experiment with RAW-Dual [1] (setting [4]) turned out to be 0.965; in the experiment on RAW-Dual [1] (agonist: LPS (TLR4) 0.1 ug/mL), 0.9.
As to `CNCc1ccc(-c2cc(-c3nc(-c4ccc(S(=O)(=O)C(C)C)cc4)cnc3N)on2)cc1`, in the experiment on RAW-Dual [2] (setting [6]), the “IRF Lucia reporter activity” value is 1.08.
On to `COC(=O)Nc1nc2ccc(C(=O)c3cccs3)cc2[nH]1` (library stock concentration (final ~1000-fold dilution): 10 mM), for which the “IRF Lucia reporter activity” value worked out at 0.119 in the experiment with RAW-Dual [3] (setting [4]) and 1.5 with RAW-Dual [3] (agonist: LPS (TLR4) 0.1 ug/mL).
Consider `COC(=O)Nc1nc2ccc(C(=O)c3cccs3)cc2[nH]1`, for which, in the experiment on RAW-Dual [2] (setting [5]), the “IRF Lucia reporter activity” value was 1.92.
As to `Nc1ncc2[nH]cnc2n1` (library stock concentration (final ~1000-fold dilution): 1000 mM), the “IRF Lucia reporter activity” value amounted to 0.741 with RAW-Dual [1] (setting [4]) and 0.514 in the experiment with RAW-Dual [1] (agonist: LPS (TLR4) 0.1 ug/mL).
On the same counts, the results for `CCCC(=O)OC[C@@H](OC(=O)CCC)[C@@H](OC(=O)CCC)[C@H](Cn1c2nc(=O)[nH]c(=O)c-2nc2cc(C)c(C)cc21)OC(=O)CCC` (library stock concentration (final ~1000-fold dilution): 10 mM) are 0.581 and 1.35.
With `N#C/C(=C/c1ccc(-c2cc(Cl)ccc2Cl)o1)C(=O)Nc1cccc2ncccc12`, in the experiment on RAW-Dual [2] (setting [5]), the “IRF Lucia reporter activity” value came to 1.4.
`N#C/C(=C/c1ccc(-c2cc(Cl)ccc2Cl)o1)C(=O)Nc1cccc2ncccc12` (library stock concentration (final ~1000-fold dilution): 10 mM): the “IRF Lucia reporter activity” value in the experiment with RAW-Dual [3] (setting [4]) came to 0.777; with RAW-Dual [3] (agonist: LPS (TLR4) 0.1 ug/mL) it was 1.08.
Consider `O=C(CCc1ccc(O)cc1)c1c(O)cc(O)cc1OC1OC(CO)C(O)C(O)C1O` (centres undefined), for which the “IRF Lucia reporter activity” value with RAW-Dual [2] (setting [6]) was found to be 1.03.
`O=C(CCc1ccc(O)cc1)c1c(O)cc(O)cc1OC1OC(CO)C(O)C(O)C1O` (centres undefined) (library stock concentration (final ~1000-fold dilution): 10 mM): the “IRF Lucia reporter activity” value with RAW-Dual [1] (setting [4]) was 0.922; in the experiment with RAW-Dual [1] (agonist: LPS (TLR4) 0.1 ug/mL), 1.05.
As to `CC(C)NCC(O)COc1cccc2ccccc12.Cl` (centres undefined) (library stock concentration (final ~1000-fold dilution): 10 mM), the “IRF Lucia reporter activity” value in the experiment with RAW-Dual [1] (setting [4]) was determined as 0.809; with RAW-Dual [1] (agonist: LPS (TLR4) 0.1 ug/mL), 1.23.
Regarding `CC(C)NCC(O)COc1cccc2ccccc12.Cl` (centres undefined), the “IRF Lucia reporter activity” value in the experiment on RAW-Dual [2] (setting [6]) was 1.15.
The same measure, in the same setting: then `Cc1c(NC(=O)OCC2COCCN2)cn2ncnc(Nc3ccc4c(cnn4Cc4cccc(F)c4)c3)c12` (centres undefined), with 1.3.
Take `Cc1c(NC(=O)OCC2COCCN2)cn2ncnc(Nc3ccc4c(cnn4Cc4cccc(F)c4)c3)c12` (centres undefined) (library stock concentration (final ~1000-fold dilution): 10 mM): the “IRF Lucia reporter activity” value with RAW-Dual [1] (setting [4]) stood at 0.267; in the experiment on RAW-Dual [1] (agonist: LPS (TLR4) 0.1 ug/mL), 1.28.
